No constants are given. Whether binding was seen depends on the method and setting. In cells and extracts the contact can be indirect. Some results given as binding are weak or reduced against the parent protein; the word gives no strength. Where a sequence is shown, tags or fusion partners need not be part of it.
T1: HA-tagged GEF-H1 (human) (UniProt Q92974)
T1 sequence: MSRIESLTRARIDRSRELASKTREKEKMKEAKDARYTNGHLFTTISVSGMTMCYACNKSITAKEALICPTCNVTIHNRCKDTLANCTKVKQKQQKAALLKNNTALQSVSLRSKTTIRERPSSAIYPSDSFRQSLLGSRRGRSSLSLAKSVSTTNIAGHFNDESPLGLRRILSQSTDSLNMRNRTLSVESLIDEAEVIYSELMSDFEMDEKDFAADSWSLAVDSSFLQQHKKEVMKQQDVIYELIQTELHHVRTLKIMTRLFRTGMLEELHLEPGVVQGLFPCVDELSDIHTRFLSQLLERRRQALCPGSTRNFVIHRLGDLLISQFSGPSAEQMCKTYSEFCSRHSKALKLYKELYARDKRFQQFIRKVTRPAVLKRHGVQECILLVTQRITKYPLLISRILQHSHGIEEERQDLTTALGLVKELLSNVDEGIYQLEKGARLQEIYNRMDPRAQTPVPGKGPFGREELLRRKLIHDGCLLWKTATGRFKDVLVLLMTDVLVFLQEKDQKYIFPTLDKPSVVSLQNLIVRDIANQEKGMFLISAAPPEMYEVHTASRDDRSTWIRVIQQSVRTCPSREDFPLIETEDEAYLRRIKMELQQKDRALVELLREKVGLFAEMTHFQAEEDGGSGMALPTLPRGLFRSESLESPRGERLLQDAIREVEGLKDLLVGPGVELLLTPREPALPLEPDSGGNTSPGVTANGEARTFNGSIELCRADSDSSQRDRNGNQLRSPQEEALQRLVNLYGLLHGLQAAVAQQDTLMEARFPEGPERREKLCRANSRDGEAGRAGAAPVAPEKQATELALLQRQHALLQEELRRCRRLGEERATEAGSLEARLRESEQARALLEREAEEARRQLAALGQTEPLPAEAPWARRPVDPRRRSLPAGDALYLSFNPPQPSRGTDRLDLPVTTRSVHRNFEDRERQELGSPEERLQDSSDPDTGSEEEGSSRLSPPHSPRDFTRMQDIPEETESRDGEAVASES

The chains behind the UniProt entries cited, without tags or fusion partners.
UniProt P61586: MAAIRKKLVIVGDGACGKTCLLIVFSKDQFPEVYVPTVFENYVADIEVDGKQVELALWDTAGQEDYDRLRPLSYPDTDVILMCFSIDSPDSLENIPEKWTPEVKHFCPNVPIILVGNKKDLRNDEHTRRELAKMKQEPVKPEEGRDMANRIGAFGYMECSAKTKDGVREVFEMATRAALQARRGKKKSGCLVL


What was measured:
Assay in all cases: co-IP; lysates (RIPA buffer) of HEK293T cells transiently co-expressing the two tagged proteins, 24 h after transfection; anti-FLAG M2 agarose beads or anti-HA magnetic beads as indicated; Western blot
FLAG-tagged RhoA (human) = FLAG-tagged RhoA (human) (UniProt P61586)
HA-tagged GEF-H1 (human) = molecular target: T1, HA-tagged GEF-H1 (human)
HA-tagged RhoA (human) = HA-tagged RhoA (human) (UniProt P61586)

binding (FLAG-tagged RhoA (human)) | binding (HA-tagged GEF-H1 (human)) | binding (HA-tagged RhoA (human)) | Binder
binds | – | – | HA-tagged BNIP-2 (protein, UniProt Q12982 1-314) MEGVELKEEWQDEDFPIPLPEDDSIEADILAITGPEDQPGSLEVNGNKVRKKLMAPDISLTLDPSDGSVLSDDLDESGEIDLDGLDTPSENSNEFEWEDDLPKPKTTEVIRKGSITEYTAAEEKEDGRRWRMFRIGEQDHRVDMKAIEPYKKVISHGGYYGDGLNAIVVFAVCFMPESSQPNYRYLMDNLFKYVIGTLELLVAENYMIVYLNGATTRRKMPSLGWLRKCYQQIDRRLRKNLKSLIIVHPSWFIRTLLAVTRPFISSKFSQKIRYVFNLAELAELVPMEYVGIPECIKQVDQELNGKQDEPKNEQ
– | binds | binds | GFP-tagged BNIP-2 (full length) (protein, UniProt Q12982 1-314) MEGVELKEEWQDEDFPIPLPEDDSIEADILAITGPEDQPGSLEVNGNKVRKKLMAPDISLTLDPSDGSVLSDDLDESGEIDLDGLDTPSENSNEFEWEDDLPKPKTTEVIRKGSITEYTAAEEKEDGRRWRMFRIGEQDHRVDMKAIEPYKKVISHGGYYGDGLNAIVVFAVCFMPESSQPNYRYLMDNLFKYVIGTLELLVAENYMIVYLNGATTRRKMPSLGWLRKCYQQIDRRLRKNLKSLIIVHPSWFIRTLLAVTRPFISSKFSQKIRYVFNLAELAELVPMEYVGIPECIKQVDQELNGKQDEPKNEQ
– | – | binds | FLAG-tagged BNIP-2-FL (protein, UniProt Q12982 1-314) MEGVELKEEWQDEDFPIPLPEDDSIEADILAITGPEDQPGSLEVNGNKVRKKLMAPDISLTLDPSDGSVLSDDLDESGEIDLDGLDTPSENSNEFEWEDDLPKPKTTEVIRKGSITEYTAAEEKEDGRRWRMFRIGEQDHRVDMKAIEPYKKVISHGGYYGDGLNAIVVFAVCFMPESSQPNYRYLMDNLFKYVIGTLELLVAENYMIVYLNGATTRRKMPSLGWLRKCYQQIDRRLRKNLKSLIIVHPSWFIRTLLAVTRPFISSKFSQKIRYVFNLAELAELVPMEYVGIPECIKQVDQELNGKQDEPKNEQ
– | – | no binding | FLAG-tagged BNIP-2-ΔRBD (protein, UniProt Q12982) MEGVELKEEWQDEDFPIPLPEDDSIEADILAITGPEDQPGSLEVNGNKVRKKLMAPDISLTLDPSDGSVLSDDLDESGEIDLDGLDTPSENSNEFEWEDDLPKPKTTEVIRKGSITEYTAAEEKEDGRRWRMFRIGEQDHRVDMKAIEPYKKVISHGGYYGDGLNANGATTRRKMPSLGWLRKCYQQIDRRLRKNLKSLIIVHPSWFIRTLLAVTRPFISSKFSQKIRYVFNLAELAELVPMEYVGIPECIKQVDQELNGKQDEPKNEQ

From paper PMC7399486
